Measurements as given in PMC4536226.
No constants are given. Whether binding was seen depends on the method and setting. In cells and extracts the contact can be indirect. Some binding calls cover weakened binding; strength is not graded here. Tags and fused reporters may be left off the sequences shown.

Protein sequences, listed by entry. Tags and fused reporters are not part of them. Lines headed by an entry give the natural chain unless they say otherwise; changes in a name come on top. Chains listed by the source or under a name are the forms on record and can include a tag or linker.
UniProt P19538: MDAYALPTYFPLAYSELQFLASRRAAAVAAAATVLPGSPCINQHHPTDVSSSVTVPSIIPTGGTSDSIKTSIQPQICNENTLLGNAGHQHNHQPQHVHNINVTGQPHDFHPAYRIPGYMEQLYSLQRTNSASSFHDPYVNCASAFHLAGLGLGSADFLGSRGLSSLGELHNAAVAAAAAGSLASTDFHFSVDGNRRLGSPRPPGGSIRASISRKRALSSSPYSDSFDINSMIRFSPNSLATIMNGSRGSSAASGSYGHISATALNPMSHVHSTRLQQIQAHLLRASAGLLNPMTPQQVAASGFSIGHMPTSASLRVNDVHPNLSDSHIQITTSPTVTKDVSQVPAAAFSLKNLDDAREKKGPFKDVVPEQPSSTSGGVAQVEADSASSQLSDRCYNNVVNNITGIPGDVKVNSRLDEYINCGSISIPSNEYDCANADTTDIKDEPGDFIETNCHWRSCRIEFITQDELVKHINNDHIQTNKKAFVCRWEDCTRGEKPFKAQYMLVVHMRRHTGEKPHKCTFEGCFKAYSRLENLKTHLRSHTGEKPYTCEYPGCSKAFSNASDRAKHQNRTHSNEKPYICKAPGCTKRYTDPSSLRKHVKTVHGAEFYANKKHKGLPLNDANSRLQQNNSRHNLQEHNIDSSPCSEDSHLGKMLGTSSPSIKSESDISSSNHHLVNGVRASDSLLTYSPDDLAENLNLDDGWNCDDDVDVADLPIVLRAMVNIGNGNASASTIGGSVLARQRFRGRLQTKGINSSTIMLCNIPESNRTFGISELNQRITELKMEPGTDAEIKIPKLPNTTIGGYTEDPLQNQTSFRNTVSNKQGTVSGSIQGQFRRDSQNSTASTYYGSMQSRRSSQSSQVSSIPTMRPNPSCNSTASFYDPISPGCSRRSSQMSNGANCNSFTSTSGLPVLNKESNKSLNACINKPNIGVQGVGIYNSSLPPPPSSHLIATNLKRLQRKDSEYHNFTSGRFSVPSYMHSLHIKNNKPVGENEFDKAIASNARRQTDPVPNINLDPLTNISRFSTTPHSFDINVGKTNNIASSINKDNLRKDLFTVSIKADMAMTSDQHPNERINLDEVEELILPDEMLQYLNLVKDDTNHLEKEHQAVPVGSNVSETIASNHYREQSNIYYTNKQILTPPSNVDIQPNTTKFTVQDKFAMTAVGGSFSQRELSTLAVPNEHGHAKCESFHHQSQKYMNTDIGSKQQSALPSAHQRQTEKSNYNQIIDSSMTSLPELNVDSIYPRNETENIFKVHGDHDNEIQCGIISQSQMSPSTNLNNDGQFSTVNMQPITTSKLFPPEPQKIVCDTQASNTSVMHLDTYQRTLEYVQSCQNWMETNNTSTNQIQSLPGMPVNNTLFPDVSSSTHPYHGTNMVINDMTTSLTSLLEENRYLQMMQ
CiΔ269–346 (P19538, form named): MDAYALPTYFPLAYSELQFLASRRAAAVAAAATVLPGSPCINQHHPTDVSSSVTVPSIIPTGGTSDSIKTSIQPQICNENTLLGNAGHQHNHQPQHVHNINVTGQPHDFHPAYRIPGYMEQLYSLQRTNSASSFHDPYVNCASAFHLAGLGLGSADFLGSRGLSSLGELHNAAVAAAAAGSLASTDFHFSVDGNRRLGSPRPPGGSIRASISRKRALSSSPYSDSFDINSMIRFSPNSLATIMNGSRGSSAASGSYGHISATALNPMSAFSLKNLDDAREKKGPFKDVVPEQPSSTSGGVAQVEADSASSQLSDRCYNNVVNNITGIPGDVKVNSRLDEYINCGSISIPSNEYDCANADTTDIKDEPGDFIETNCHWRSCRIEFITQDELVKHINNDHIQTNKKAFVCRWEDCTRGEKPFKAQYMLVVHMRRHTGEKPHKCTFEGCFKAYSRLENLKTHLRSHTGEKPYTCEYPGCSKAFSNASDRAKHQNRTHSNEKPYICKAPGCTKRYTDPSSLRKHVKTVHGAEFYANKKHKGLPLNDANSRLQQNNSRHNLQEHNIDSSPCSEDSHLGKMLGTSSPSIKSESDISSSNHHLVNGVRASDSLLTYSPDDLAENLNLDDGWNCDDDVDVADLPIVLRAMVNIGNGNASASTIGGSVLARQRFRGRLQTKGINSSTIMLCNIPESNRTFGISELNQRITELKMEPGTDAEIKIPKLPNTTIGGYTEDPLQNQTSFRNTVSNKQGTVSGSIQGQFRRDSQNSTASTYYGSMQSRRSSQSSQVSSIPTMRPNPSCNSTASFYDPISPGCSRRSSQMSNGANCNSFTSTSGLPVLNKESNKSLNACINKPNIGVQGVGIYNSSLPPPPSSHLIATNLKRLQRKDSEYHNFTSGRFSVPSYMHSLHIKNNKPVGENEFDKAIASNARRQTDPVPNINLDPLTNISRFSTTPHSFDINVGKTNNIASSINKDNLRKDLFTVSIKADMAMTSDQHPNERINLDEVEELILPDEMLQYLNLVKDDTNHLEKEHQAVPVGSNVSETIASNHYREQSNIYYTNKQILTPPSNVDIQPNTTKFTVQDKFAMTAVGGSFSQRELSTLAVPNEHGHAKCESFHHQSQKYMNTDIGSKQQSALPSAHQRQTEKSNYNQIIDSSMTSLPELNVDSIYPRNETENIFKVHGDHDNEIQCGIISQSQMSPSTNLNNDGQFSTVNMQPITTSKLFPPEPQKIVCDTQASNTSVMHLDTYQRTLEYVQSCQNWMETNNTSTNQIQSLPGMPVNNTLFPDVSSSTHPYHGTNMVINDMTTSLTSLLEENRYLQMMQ
CiΔ212–268 (P19538, form named): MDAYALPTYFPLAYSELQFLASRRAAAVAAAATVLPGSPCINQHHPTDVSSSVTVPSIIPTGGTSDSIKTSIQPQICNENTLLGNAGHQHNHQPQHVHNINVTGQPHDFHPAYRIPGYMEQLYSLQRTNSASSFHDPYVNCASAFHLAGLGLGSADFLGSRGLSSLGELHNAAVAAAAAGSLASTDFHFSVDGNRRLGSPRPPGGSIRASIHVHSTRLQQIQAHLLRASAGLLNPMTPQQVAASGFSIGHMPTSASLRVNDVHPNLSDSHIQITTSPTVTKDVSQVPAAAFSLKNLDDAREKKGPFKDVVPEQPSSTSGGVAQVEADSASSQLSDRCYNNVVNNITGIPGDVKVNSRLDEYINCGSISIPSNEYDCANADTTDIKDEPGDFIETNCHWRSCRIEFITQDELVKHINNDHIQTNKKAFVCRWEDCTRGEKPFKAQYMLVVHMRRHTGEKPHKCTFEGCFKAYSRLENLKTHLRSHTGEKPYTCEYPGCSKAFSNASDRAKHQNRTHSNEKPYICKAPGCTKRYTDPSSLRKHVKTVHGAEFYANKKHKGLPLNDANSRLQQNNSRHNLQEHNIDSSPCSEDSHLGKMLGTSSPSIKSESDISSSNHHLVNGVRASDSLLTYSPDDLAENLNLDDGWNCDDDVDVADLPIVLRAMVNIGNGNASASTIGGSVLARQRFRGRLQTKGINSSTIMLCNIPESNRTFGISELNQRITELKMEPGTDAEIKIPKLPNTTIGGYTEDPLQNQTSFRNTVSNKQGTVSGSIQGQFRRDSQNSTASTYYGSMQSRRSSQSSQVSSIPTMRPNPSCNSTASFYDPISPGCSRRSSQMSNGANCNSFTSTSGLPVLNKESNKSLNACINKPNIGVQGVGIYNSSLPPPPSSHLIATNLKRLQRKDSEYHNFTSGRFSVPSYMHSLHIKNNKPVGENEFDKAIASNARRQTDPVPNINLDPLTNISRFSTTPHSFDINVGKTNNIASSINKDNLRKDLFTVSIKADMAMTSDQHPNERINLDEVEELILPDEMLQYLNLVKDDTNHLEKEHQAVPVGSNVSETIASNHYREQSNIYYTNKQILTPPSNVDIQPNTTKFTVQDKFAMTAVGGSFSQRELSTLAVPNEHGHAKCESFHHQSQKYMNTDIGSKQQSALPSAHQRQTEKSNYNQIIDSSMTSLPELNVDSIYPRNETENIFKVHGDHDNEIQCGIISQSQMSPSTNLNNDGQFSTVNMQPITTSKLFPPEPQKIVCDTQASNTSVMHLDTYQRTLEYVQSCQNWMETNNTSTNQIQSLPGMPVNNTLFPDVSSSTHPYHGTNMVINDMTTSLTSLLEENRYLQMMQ

Tests used:
[1] = target: T1, Myc-tagged Cos2 (Myc-Cos2) (Drosophila) (UniProt O16844); assay: co-IP; S2R+ cells transfected with FLAG-Ci variants and Myc-Cos2, and with dsRNA against Su(fu); either anti-FLAG or anti-Myc IP; lysis in PBS with 1.0% Triton X-100
T1 sequence: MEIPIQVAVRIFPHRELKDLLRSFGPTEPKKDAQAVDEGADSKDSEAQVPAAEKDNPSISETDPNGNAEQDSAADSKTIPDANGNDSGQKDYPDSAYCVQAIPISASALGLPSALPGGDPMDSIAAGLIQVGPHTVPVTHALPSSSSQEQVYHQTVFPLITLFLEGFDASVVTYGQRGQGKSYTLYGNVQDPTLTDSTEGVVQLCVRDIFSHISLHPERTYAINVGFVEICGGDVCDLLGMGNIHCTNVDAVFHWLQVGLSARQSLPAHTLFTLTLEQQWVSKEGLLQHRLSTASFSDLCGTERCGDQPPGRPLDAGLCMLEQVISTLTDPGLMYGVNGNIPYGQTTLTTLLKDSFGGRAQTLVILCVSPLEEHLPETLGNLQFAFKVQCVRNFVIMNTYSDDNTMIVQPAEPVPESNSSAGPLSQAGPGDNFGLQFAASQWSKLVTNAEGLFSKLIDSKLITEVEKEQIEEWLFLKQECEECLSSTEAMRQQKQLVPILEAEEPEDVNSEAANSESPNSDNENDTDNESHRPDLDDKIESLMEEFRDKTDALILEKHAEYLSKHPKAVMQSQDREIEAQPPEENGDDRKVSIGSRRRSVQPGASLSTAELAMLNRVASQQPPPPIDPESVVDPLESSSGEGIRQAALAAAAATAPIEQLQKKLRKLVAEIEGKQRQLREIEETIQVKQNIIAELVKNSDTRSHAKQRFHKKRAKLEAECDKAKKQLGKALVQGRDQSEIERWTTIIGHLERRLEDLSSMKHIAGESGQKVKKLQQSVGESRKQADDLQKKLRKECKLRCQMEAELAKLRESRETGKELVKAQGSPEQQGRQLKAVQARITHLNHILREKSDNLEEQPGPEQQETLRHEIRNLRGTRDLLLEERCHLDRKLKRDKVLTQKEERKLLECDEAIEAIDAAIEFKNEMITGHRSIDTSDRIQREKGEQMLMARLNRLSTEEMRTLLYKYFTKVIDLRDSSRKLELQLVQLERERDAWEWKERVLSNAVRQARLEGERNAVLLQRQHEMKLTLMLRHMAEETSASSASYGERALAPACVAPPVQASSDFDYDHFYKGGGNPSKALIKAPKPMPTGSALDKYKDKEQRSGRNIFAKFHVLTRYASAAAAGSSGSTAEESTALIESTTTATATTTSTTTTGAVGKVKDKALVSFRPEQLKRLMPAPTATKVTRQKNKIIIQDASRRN

[2] = target: T2, V5-tagged Suppressor of fused (V5-Su(fu)) (Drosophila melanogaster) (UniProt Q9VG38); assay: co-IP; S2R+ cells transfected with FLAG-Ci variants and V5-Su(fu), and with dsRNA against Cos2 to deplete endogenous Cos2; lysis in PBS with 1.0% Triton X-100
T2 sequence: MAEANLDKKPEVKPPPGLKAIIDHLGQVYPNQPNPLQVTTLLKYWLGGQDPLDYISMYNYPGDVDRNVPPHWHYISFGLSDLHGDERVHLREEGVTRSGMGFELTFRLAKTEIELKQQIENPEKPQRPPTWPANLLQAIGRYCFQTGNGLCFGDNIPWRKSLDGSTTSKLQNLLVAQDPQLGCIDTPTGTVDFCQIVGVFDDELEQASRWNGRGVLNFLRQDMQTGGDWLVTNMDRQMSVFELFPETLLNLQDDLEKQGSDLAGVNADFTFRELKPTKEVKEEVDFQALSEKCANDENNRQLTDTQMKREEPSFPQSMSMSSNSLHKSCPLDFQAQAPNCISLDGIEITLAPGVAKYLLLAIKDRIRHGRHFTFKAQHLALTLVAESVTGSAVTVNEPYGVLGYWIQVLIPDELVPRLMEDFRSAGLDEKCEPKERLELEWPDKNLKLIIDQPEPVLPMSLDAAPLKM

binding [1]	binding [2]	Substance
binds	–	CiΔ269–346 (from UniProt P19538 1-1397)
binds	binds	N-terminally FLAG-tagged Ci (FLAG-Ci) (from UniProt P19538 1-1397)
binds	–	Ci347C (from UniProt P19538 347-1397) (domain or fragment)
binds	binds weakly	CiΔ212–268 (from UniProt P19538 1-1397)
